{"sequences": {"note": "Sequences of proteins named here, by UniProt entry; tags and fusion partners are left off.", "UniProt Q08775": "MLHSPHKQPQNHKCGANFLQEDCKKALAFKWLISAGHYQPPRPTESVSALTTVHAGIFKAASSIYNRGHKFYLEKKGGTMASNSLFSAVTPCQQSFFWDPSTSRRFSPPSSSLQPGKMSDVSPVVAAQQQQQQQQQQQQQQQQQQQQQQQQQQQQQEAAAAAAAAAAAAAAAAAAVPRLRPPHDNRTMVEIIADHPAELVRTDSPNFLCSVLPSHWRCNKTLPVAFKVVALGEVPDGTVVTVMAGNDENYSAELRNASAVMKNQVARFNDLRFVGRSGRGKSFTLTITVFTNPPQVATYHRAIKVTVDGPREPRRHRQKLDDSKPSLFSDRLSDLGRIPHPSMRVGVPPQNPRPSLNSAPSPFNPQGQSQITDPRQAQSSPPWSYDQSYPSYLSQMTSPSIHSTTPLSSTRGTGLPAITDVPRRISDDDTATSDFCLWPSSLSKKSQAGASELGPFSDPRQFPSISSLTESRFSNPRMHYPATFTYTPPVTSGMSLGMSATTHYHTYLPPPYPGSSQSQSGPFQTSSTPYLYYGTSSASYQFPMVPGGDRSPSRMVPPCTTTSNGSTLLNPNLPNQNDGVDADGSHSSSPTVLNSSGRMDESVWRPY", "UniProt Q78T81": "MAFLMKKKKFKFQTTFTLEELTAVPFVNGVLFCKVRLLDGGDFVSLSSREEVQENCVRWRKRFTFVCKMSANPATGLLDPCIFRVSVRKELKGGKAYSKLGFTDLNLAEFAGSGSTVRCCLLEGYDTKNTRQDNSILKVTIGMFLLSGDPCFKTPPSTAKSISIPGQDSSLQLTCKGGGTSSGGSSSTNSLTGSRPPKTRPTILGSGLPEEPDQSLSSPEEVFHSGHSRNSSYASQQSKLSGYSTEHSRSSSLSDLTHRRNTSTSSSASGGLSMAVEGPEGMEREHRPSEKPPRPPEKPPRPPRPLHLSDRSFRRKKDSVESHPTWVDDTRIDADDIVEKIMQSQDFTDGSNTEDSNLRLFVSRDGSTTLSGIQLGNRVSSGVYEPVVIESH", "UniProt O08674": "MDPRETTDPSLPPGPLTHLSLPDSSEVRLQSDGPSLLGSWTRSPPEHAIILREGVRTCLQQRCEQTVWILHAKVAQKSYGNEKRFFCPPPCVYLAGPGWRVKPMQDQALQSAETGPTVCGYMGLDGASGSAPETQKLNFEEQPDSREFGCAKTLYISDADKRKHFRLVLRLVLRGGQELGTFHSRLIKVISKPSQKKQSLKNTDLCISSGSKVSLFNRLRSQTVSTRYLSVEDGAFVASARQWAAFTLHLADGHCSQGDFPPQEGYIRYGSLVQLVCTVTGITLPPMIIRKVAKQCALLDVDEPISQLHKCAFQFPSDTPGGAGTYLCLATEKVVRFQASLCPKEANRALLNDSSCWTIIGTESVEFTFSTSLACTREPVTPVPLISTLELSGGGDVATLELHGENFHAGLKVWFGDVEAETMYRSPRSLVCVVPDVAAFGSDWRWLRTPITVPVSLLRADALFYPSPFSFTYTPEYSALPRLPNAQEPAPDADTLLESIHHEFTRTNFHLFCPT", "UniProt Q9EPK5": "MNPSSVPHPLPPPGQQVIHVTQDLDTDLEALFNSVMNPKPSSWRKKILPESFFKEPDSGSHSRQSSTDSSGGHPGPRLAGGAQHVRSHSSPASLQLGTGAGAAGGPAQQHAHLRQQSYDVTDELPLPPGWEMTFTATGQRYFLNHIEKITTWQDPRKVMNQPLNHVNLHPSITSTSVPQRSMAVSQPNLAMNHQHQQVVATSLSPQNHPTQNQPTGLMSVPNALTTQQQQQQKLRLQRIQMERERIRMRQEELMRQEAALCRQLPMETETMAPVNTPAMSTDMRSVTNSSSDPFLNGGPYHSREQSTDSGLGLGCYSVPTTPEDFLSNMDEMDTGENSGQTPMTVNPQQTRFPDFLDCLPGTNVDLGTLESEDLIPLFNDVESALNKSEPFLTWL", "UniProt P46938": "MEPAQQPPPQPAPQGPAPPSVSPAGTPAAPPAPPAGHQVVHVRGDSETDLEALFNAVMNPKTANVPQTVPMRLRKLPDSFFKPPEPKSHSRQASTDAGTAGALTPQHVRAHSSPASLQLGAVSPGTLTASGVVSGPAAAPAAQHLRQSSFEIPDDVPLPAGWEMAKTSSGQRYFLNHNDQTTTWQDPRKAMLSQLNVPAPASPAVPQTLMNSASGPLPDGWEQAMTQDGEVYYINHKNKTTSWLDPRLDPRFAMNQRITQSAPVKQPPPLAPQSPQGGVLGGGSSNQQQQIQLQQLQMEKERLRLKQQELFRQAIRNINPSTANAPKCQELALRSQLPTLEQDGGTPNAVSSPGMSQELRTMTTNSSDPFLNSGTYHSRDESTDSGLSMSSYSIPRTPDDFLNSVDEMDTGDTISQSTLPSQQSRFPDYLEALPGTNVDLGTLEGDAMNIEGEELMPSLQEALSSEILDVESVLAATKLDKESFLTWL"}, "source": "paper PMC11695619", "molecules": {"B1": {"name": "hes family bHLH transcription factor 1 (Hes1) (protein, UniProt P35428 1-282)", "chain": "MPADIMEKNSSSPVAATPASVNTTPDKPKTASEHRKSSKPIMEKRRRARINESLSQLKTLILDALKKDSSRHSKLEKADILEMTVKHLRNLQRAQMTAALSTDPSVLGKYRAGFSECMNEVTRFLSTCEGVNTEVRTRLLGHLANCMTQINAMTYPGQAHPALQAPPPPPPSGPAGPQHAPFAPPPPPLVPIPGGAAPPPGSAPCKLGSQAGEAAKVFGGFQVVPAPDGQFAFLIPNGAFAHSGPVIPVYTSNSGTSVGPNAVSPSSGSSLTSDSMWRPWRN"}}, "test_in_all_cases": "co-IP; HEK293 cells transfected with each expression gene, lysed; immunoprecipitation with anti-DDDDK-tag, anti-HA-tag or anti-Myc-tag magnetic beads; blots with anti-FLAG, anti-HA and anti-Myc", "key": {"[1]": {"target": "runt-related transcription factor 2 (Runx2) (UniProt Q08775)"}, "[2]": {"target": "family with sequence similarity 102 member A (Fam102a) (UniProt Q78T81)"}, "[3]": {"target": "family with sequence similarity 102 member A (Fam102a) (UniProt Q78T81)", "remark": "listed apart in the source"}}, "note": "Like-named read-outs stand apart in the source and are kept apart here. These are yes or no findings as the source states them, for the method shown. In cells and extracts the contact can be indirect. Some entries that bind do so weakly or less than the wild type.", "data": [{"molecule": "recombination signal binding protein for immunoglobulin κ J region-like (Rbpjl) (from UniProt O08674 1-515)", "values": [{"measurement": "binding", "setting": "[1]", "result": "binds"}, {"measurement": "binding", "setting": "[2]", "result": "binds"}]}, {"molecule": "transcriptional coactivator with PDZ-binding motif (Taz) (from UniProt Q9EPK5 1-395)", "values": [{"measurement": "binding", "setting": "[2]", "result": "no binding"}]}, {"molecule": "yes-associated protein 1 (Yap1) (from UniProt P46938 1-488)", "values": [{"measurement": "binding", "setting": "[2]", "result": "no binding"}]}, {"molecule": "B1", "values": [{"measurement": "binding", "setting": "[3]", "result": "no binding"}]}]}
